Assay results from paper PMC6919601, “Identification of Plasmodium dipeptidyl aminopeptidase allosteric inhibitors by high throughput screening” (PLoS ONE, 2019).
About 230 (0.21%) of roughly 110,000 compounds showed an effect of 50% or more. This is one part of the list.

target: DPAP1 (Plasmodium falciparum, UniProt Q8IIJ9); assay: primary screen, percent inhibition; read by cleavage of a fluorogenic dipeptide substrate; higher = more effect of the substance; parameters: species or system P. falciparum D10 trophozoite lysates; single well
Sequence (Q8IIJ9 whole entry, looked up): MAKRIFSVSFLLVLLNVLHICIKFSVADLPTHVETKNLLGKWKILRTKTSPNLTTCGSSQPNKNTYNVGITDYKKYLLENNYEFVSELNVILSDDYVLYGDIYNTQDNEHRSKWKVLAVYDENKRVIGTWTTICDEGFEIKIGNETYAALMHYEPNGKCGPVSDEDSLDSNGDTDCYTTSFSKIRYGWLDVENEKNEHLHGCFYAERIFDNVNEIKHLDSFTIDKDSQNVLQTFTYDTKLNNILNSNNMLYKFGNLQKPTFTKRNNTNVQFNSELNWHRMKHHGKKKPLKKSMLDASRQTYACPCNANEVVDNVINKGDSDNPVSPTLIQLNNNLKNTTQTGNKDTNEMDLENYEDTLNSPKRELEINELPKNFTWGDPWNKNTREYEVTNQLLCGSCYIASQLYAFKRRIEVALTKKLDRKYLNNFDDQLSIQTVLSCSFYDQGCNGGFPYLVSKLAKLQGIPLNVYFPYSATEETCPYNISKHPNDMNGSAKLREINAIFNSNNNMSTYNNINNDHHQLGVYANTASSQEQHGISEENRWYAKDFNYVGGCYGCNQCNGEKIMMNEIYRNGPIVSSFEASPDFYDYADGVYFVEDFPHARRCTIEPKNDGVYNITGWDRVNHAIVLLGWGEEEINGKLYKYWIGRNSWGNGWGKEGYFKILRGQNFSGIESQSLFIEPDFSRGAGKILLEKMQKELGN
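Note: 30 min substrate incubation versus DMSO and 10 µM JCP410 controls.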

Compound | % Inhibition @ 10 uM
CN(C)c1ccc(C(=O)Nc2nc3ccccc3s2)cc1 | 2.78%
Cc1cc(C)n(-c2ccc3ccccc3n2)n1 | -3.16%
CCOc1ccc(C2C(C(=O)OC)=CN(CCOC)C=C2C(=O)OC)cc1 | -8.96%
CSc1ccc(C2CC(c3c(O)cc(C)oc3=O)=NCCS2)cc1 (stereo not shown) | -4.11%
Nc1c(C(=O)c2ccc(-c3ccccc3)cc2)sc2nc3c(c(-c4ccc(Cl)cc4)c12)CCCC3 | -6.44%
Cc1c(NC(=O)c2cccc([N+](=O)[O-])c2C(=O)O)c(=O)n(-c2ccccc2)n1C | 0.912%
CSc1ncc(C(=O)NCc2ccco2)c(-c2ccccc2)n1 | 4.01%
CC(C)CC(NC(=O)c1ccc(O)cc1)C(=O)NCC#N (stereo not shown) | 2.22%
Cc1ccc(-n2c3c(c(=O)[nH]c2=O)C(C(F)(F)F)(C(F)(F)F)NC(=O)N3)cc1 | -2.73%
COc1ccc(C(=O)Nc2cc(C)on2)cc1 | -7.23%
O=C(C1=C(O)C(=O)N(Cc2ccco2)C1c1cccs1)c1cccs1 (stereo not shown) | -11.7%
Cc1cc(C)n(CN2C(=O)c3ccccc3C2=O)n1 | -3.62%
CC(=O)c1cccc(NC(=O)COc2cc(Cl)ccc2Cl)c1 | -7.09%
CC1CCc2c(sc(NC(=O)COc3c(F)c(F)cc(F)c3F)c2C(N)=O)C1 (stereo not shown) | 4.01%
C(=C\c1ccccc1)/C=N/n1cnnc1 | 13.2%
COc1ccc(CCNc2cnc(O)nc2O)cc1OC | -3.33%
COc1ccc(CN2CCCCC2)c(OC)c1C | -5.42%
Nc1nc2nc(-c3ccc(F)cc3)cc(C(F)(F)F)n2n1 | -1.94%
O=C1C2C3CCC(O3)C2C(=O)N1c1ccc(Br)cn1 (stereo not shown) | 3.98%
Cc1cccc(C(=O)Nc2ccc(C)c(Cl)c2)c1 | 3.85%
CC1(C)CC(=O)C(C(C2=C(O)CC(C)(C)CC2=O)c2ccc([N+](=O)[O-])cc2)C(=O)C1 (stereo not shown) | -5.23%
Cc1nnc(NC(=O)c2ccc(NC(=O)C(F)(F)F)cc2)s1 | 3.01%
CCCCNC(=O)C1CCN(S(=O)(=O)c2c(C)cc(C)cc2C)CC1 | -6.37%
C=CCNC(=O)C1CCN(S(=O)(=O)N2CCC3(CC2)OCCO3)CC1 | -2.99%
O=C(CSc1nc2ccccc2o1)NC1CCCC1 | 0.815%

Compound | % Inhibition @ 10 uM
COc1cc(C(c2c(O)n[nH]c2C)c2c(O)n[nH]c2C)cc(Cl)c1OCC(=O)O | 5.44%
Cc1cccc2sc(N(CCN(C)C)C(=O)C3COc4ccccc4O3)nc12 (stereo not shown) | -2.5%
CCC(C)N(CCNC(=O)C1CCN(C(=O)c2cc3sccc3n2C)CC1)C1CCCCC1 (stereo not shown) | -1.58%
Cc1c(C(=O)N2CCCCC2)sc(NC(=O)Cc2ccccc2)c1C#N | 1.13%
COc1ccc(CCNS(=O)(=O)c2ccc(C)cc2)c(OC)c1OC | -2.75%
O=C(O)c1cc(Cl)ccc1/N=C/C1=C(O)c2ccccc2C1=O | -6.27%
Oc1cccc(C2NCCc3c2[nH]c2ccccc32)c1 (stereo not shown) | -1.8%
N#CC1=C(N)Oc2[nH]nc(C(F)(F)F)c2C1c1ccc(Br)cc1 (stereo not shown) | 0.726%
CC1CCc2c(sc(NC(=O)c3cnccn3)c2C#N)C1 (stereo not shown) | -6.34%
O=C(NC(C(=O)O)C12CC3CC(CC(C3)C1)C2)c1ccccc1 (stereo not shown) | -1.77%
CC(CCc1ccccc1)N1CCN(c2ccc(F)cc2)CC1 (stereo not shown) | -1.82%
Cc1ccccc1OCC(=O)Nc1ccc(CC#N)cc1 | -1.89%
COCCNC(=O)Cn1ncc2ccc(C)cc21 | 0.596%
O=C(CSc1nc(-c2ccc(Br)cc2)c[nH]1)Nc1ccccc1 | -6.36%
CCCCCCCC(=O)NC(C)Cc1c[nH]c2ccccc12 (stereo not shown) | -4.18%
C/C=C/Cn1c(SC(C)C)nc2c1c(=O)[nH]c(=O)n2C | -2.78%
COc1ccc(CCN2C(=O)C(NC(C)=O)(C(F)(F)F)C3=C2CC(C)(C)CC3=O)cc1OC (stereo not shown) | 0.221%
O=C(Nc1nc2ccccc2s1)c1cccnc1 | 2.67%
CCOC(=O)c1c(NC(=O)Cc2ccccc2)sc2c1CCC(C)C2 (stereo not shown) | 9.09%
CN(C)CCNC1C2CC3CC(C2)CC1C3 (stereo not shown) | 1.57%
N#Cc1ccc(S(=O)(=O)N2CCC(Oc3ccc(-n4cnnn4)cc3)CC2)cc1 | 0.635%
CCOC(=O)C1=C(N)Oc2c(c(=O)oc3ccccc23)C1c1ccc(Cl)c(Cl)c1 (stereo not shown) | -2.51%
O=C(O)C1C2CCC(C2)C1C(=O)NCc1ccco1 (stereo not shown) | -6.27%
CC(C)(C)CC(=O)Nc1nc2ccccc2s1 | -0.996%
COc1ccc(-c2cc(C(F)(F)F)nc(SCC(=O)Nc3cccc(C)n3)n2)cc1OC | 6.46%

Compound | % Inhibition @ 10 uM
CNC(=O)c1ccc(CSc2nc3cccnc3n2Cc2ccc(F)cc2)cc1 | -4.16%
COc1ccc(C(=O)Nc2ccc(S(=O)(=O)Nc3cc(C)on3)cc2)cc1Br | -10.2%
Clc1ccc(OCCCCN2CCOCC2)cc1 | -9.96%
Cc1ccc(S(=O)(=O)N2CC(C)OC(C)C2)cc1 (stereo not shown) | 2.08%
Cc1ccc(N2C(=O)CC(N3CCCC4CCCCC43)C2=O)cc1 (stereo not shown) | -0.0938%
COC(=O)c1ccc2c(c1)C(=O)/C(=C/c1cn(-c3ccccc3)nc1-c1ccco1)O2 | -1.37%
COCCNC(=O)CCc1c(C)nc2nc(-c3ccc(Cl)cc3Cl)nn2c1C | -4.24%
N#Cc1ccccc1OCC(=O)Nc1ccc(OC(F)(F)F)cc1 | 3.57%
COc1ccc(N2C(=O)c3ccccc3C2=O)cc1NC(=O)c1ccccc1 | -0.891%
COCCNc1ncnc2oc(C)c(C(=O)O)c12 | -9.6%
COC(=O)c1ccc(-c2ccco2)n1CC(=O)NC(C)c1ccccc1 (stereo not shown) | 5.82%
CCOC(=O)c1cc(C(=O)NC(C)c2ccccc2)c(C)nc1O (stereo not shown) | -0.597%
c1ccc2c(CNC3CCCC3)c[nH]c2c1 | 2.65%
CC1CCN(c2ncnc3c2sc2nc(C(C)C)c4c(c23)CC(C)(C)OC4)CC1 | 2.1%
O=c1c2c3c(sc2[nH]c(=S)n1-c1ccccc1)CC1(CCCCC1)CC3 | 0.774%
Cc1c(Cl)cccc1-n1nc(C)c2c(C(=O)NCc3ccco3)cc(C3CC3)nc21 | -3.56%
O=C(Nc1ccc(O)cc1)/C(=C/c1ccco1)NC(=O)c1ccccc1 | -0.661%
COc1ccc(/C=C2/N=C(c3cccc4ccccc34)OC2=O)c(OC)c1 | -18.5%
Cc1cc(C(=O)N2N=C(C(F)F)CC2(O)C(F)F)c2ccccc2n1 (stereo not shown) | 3.52%
COc1ccc2ccccc2c1/C=C1\N=C(c2cccc(C)c2)OC1=O | 5.94%
Cc1cc(/C=C2\SC(=O)N(Cc3ccc(F)cc3)C2=O)c(C)n1-c1cccnc1 | 0.955%
CC(C)Cc1c(C#N)c(S)nc2c1CCCC2 | 90.5%
O=C(Nc1ccccc1C(=O)N1CCN(CCO)CC1)c1ccc(Cl)cc1Cl | 1.03%
c1ccc(COc2ccc(CN3CCSCC3)cc2)cc1 | 0.217%
COc1ccc(CNc2oc(COc3ccc(Cl)cc3)nc2C#N)cc1 | 1.43%

Compound | % Inhibition @ 10 uM
Cc1nc2sc3c(ncn4c5ccccc5nc34)c2c(C)c1Cl | 3.81%
O=C(CCN1C(=O)c2ccncc2C1=O)NCc1ccc(Cl)cc1 | -4.67%
O=c1cc(-c2ccccc2)n(-c2ccccc2)[nH]1 | 0.716%
Cc1cc(C)c(OCC(O)CN2CCC(C)CC2)c(C)c1 (stereo not shown) | -10.8%
Oc1ccc(O)c2c1C1c3ccccc3C2c2ccccc21 | -0.0369%
CC(C)Cn1cc(NC(=O)Nc2cccnc2)c2ccccc2c1=O | -3.08%
CCOc1ccccc1C(=O)Nc1cc(OC)ccc1OC | -5.82%
O=S(=O)(NCCSCc1ccccc1)c1ccc2c(c1)OCCO2 | -3.9%
O=C(CCC(=O)c1ccc(F)cc1)Nc1cnc2ccccc2c1 | 1.88%
CCCC[C@H](NC(=O)OCc1ccccc1)C(=O)NCC#N | -11%
N#CC1=C(N)Oc2[nH]nc(-c3ccccc3)c2C1c1ccc2c(c1)OCO2 (stereo not shown) | 0.751%
CCOc1ccc(OCc2ccc(C(=O)N3CCCCC3)o2)cc1 | -2.97%
COCCO/C(O)=C1/C(C)=NC(=S)NC1c1ccc(C)cc1 (stereo not shown) | -5.63%
COc1cc(/C=C2\C(=N)N3N=C(S(C)(=O)=O)SC3=NC2=O)ccc1O | 13.6%
CCC1CCc2c(sc(NC(=O)c3cccnc3)c2C(N)=O)C1 (stereo not shown) | 2.54%
CO/C(O)=C1\C(C)=NC2=C(C(=O)CC(c3ccccc3)C2)C1c1cccc([N+](=O)[O-])c1 (stereo not shown) | 3.18%
O=C(Nc1cccc2n[se]nc12)c1ccc2c(c1)OCO2 | -2.5%
COc1ccc(CNc2nc3ccccc3c3nc(CCc4c(C)n[nH]c4C)nn23)cc1 | -2.42%
O=C(CCc1nnc2ccc(N3CCCC3)nn12)N1CCN(c2ccccn2)CC1 | 1.39%
CCCN(CCC)C(=O)CS(=O)Cc1nc(-c2ccc(OC)cc2)oc1C (stereo not shown) | -2.85%
Cc1ccc(CN2N=NC3C(=O)NC(=O)C32)cc1 (stereo not shown) | -0.411%
CO/C(O)=C1/C(C)=NC2=C(C(=O)CC(c3ccccc3)C2)C1c1ccc(OC)cc1 (stereo not shown) | -2.87%
O=C(NCCc1ccccc1)c1cc([N+](=O)[O-])cc([N+](=O)[O-])c1 | -0.239%
CCOc1ccc(-c2[nH]nc3c2C(c2c[nH]nc2-c2ccc(F)cc2)C(C#N)=C(N)O3)cc1 (stereo not shown) | 0.289%
Cc1oc(-c2ccc(Cl)cc2)nc1CN1CCCC(C(=O)N2CCN(C(=O)c3ccco3)CC2)C1 (stereo not shown) | -4.71%
